Test results published in PubChem BioAssay AID504339 (National Center for Advancing Translational Sciences (NCATS), 2011).
Among all 390,000 compounds or so, about 17,000 (4.4%) were called active. Inconclusive means that the source gave no clear call. Such entries were picked first, then a sample of the others. Calls follow the shape of the dose curve; as a rule, active = well fitted inhibition curve with a large enough effect; inconclusive = small, poorly fitted or top-dose-only effect; inactive = no such curve, though single readings can be large or run the other way. Where the call is inconclusive, the potency comes from a doubtful curve fit.

Target: Lysine-specific demethylase 4A (Homo sapiens) (UniProt O75164)
UniProt O75164, sequence (O75164 whole entry, looked up, the tested form may be a part): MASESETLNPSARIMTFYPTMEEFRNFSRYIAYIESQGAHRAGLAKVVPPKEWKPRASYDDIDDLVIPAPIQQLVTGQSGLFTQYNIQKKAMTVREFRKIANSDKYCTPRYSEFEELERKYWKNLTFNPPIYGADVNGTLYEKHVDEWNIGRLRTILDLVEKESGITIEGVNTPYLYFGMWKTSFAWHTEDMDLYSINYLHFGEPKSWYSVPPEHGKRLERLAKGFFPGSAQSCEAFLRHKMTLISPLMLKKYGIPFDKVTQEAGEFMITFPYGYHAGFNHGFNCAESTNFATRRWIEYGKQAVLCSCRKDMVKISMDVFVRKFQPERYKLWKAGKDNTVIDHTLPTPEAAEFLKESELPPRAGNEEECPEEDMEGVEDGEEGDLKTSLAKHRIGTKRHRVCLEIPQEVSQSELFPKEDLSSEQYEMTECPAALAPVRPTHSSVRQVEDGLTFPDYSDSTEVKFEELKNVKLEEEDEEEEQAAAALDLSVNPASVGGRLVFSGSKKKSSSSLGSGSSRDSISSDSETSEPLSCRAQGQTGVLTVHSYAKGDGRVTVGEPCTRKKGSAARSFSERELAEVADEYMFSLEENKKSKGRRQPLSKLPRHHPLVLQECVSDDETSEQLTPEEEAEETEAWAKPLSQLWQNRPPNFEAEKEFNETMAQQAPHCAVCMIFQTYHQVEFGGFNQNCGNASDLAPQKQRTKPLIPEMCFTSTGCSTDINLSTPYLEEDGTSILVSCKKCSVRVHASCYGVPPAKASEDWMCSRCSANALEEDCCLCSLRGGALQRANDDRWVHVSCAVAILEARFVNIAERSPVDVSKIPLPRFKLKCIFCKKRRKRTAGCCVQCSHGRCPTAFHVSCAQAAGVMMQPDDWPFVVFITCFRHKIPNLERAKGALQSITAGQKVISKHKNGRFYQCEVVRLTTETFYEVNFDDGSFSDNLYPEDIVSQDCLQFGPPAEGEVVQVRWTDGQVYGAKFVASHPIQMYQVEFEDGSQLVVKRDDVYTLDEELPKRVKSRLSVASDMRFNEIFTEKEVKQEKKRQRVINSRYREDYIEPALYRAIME
Assay: qHTS Assay for Inhibitors of JMJD2A-Tudor Domain; also: nearly all actives have a fitted effect of over 50% in size
Details: AlphaScreen JMJD2A-Tudor / H3K4me3 peptide binding; series mostly up to 114 µM
Potency is read from the fitted curve at half-maximal effect; tags tell the direction and shape of the fitted curve.

SMILES	Potency
CCOc1ccccc1NC(=O)CN1c2ccccc2S(=O)(=O)c2ccccc21	inactive
Nc1cnc(Nc2ccc(Br)cc2)nc1N	inconclusive: 56.2 µM [inhibitor, partial curve]
Cc1c(NC(=S)NC(=O)c2ccc(COc3ccccc3)cc2)cccc1C(=O)O	inconclusive: 50.1 µM [inhibitor, partial curve]
CC(C)(C)c1ccc(-c2csc(NNC3=NCCCCC3)n2)cc1	inconclusive: 44.7 µM [inhibitor, partial curve]
Cn1cc(C(=O)c2ccc(F)cc2)cc1-c1nc2ccccc2n1C	inconclusive: 89.1 µM [inhibitor, partial curve]
O=C(Nc1nc2ccccc2[nH]1)C1CCN(C(=O)c2ccc(F)cc2)CC1	inconclusive: 7.94 µM [inhibitor, full curve]
O=C(CNC(=O)c1cccnc1)N/N=C/c1ccc(O)cc1O	inconclusive: 79.4 µM [inhibitor, single point]
CCOc1ccc(-c2cc(N3C(=O)Nc4ccccc4N3O)on2)cc1	inactive
O=C(NCC(c1cccnc1)N1CCc2ccccc2C1)C(=O)Nc1ccccc1 (centres undefined)	inconclusive: 2.82 µM [inhibitor, full curve]
CCN1CCN(c2cc(C)c3cc(NC(=O)c4cncc(Br)c4)ccc3n2)CC1	inconclusive: 50.1 µM [inhibitor, partial curve]
CCOc1ccc(Nc2nc(N)nc(CN3CCN(c4ccccc4F)CC3)n2)cc1	inconclusive: 56.2 µM [inhibitor, single point]
O=C1COc2ccc(C(=O)COc3ccc(Cl)cc3Br)cc2N1	inactive
O=C(O)c1cc(NCc2cc(O)ccc2O)ccc1O	active: 25.1 µM
CC(=O)c1cccc(NC(=O)c2ccc(C)o2)c1	inconclusive: 15.8 µM [inhibitor, full curve]
N#Cc1cccc(NC(=O)C2SC(=Nc3ccccc3)C(C(=O)N3CCOCC3)=C2N)c1 (centres undefined)	inconclusive: 56.2 µM [inhibitor, partial curve]
Cc1cc(NC(=O)Cn2nnc3sc4c(c3c2=O)CCC(C(C)(C)C)C4)no1 (centres undefined)	inconclusive: 22.4 µM [inhibitor, full curve]
CCOC(=O)c1c(Nc2cc(C)cc(C)c2)nnc(-c2ccccc2)c1-c1ccccc1	inconclusive: 10 µM [inhibitor, partial curve, poor fit]
CC(C)n1c(C(=O)OCC(=O)NCc2ccc3c(c2)OCO3)cc2occc21	inconclusive: 56.2 µM [inhibitor, partial curve]
C=CCN1C(c2ccc(OCC)cc2)=CS/C1=C(\C#N)c1nnc2n1CCCCC2	inconclusive: 56.2 µM [inhibitor, partial curve]
C=CCn1c(/N=C/c2ccc(N(C)C)cc2)nc2ccccc21	inconclusive: 44.7 µM [inhibitor, partial curve]
Cc1ncc(CO)c(/C=N/NC(=S)Nc2cccc(Cl)c2)c1O	active: 56.2 µM
COC(=O)CN1C(=S)N(c2ccc(OC)cc2)C(=O)/C1=C/c1ccc(N2CCOCC2)cc1	inconclusive: 14.1 µM [inhibitor, full curve]
Cc1ccc(C)n1-n1c(C)nc2scc(-c3cccs3)c2c1=O	inconclusive: 56.2 µM [inhibitor, partial curve]

SMILES	Potency
CCc1ccc(C2c3c(-c4cc(C)ccc4O)n[nH]c3C(=O)N2Cc2cccnc2)cc1 (centres undefined)	inconclusive: 44.7 µM [inhibitor, partial curve]
COc1ccc(OC)c(NC(=O)N2c3ccccc3Sc3ccccc32)c1	inconclusive: 15.8 µM [inhibitor, full curve, poor fit]
CCCCn1c(N)c(Sc2ccccc2[N+](=O)[O-])c(=O)[nH]c1=O	inactive
Cc1c(NC(=O)Nc2ccc(F)c(Cl)c2)c(=O)n(-c2ccccc2)n1C	inactive
Cc1cc(NC(=O)CCCN2C(=O)/C(=C\c3cccs3)SC2=S)no1	inactive
Cc1cccc(-c2nc(CN3CCCC(C(=O)NC4CCC(C)CC4)C3)c(C)o2)c1 (centres undefined)	inconclusive: 56.2 µM [inhibitor, partial curve]
CC(OC(=O)c1ccc2c(=O)n3c(nc2c1)CCC3)C(N)=O (centres undefined)	inconclusive: 56.2 µM [inhibitor, partial curve]
CCN1C(=O)/C(=c2\o/c(=C3\C=Cc4ccccc4N3CC)c(=O)n2CC)SC1=S	inconclusive: 56.2 µM [inhibitor, partial curve]
CC[C@@]1(C(=O)OC)N[C@H](CN(C)C(=O)c2ccc(C)cc2)[C@@H]2C(=O)N(Cc3ccccc3)C(=O)[C@@H]21	inactive
O=C(COC(=O)Cc1cccc(C(F)(F)F)c1)Nc1ccc2c(c1)OCCO2	inconclusive: 31.6 µM [inhibitor, full curve, poor fit]
Cc1cccc(-n2nnc3c(=O)n(Cc4ccccn4)cnc32)c1	inactive
O=C(Nc1cccc(Cl)c1N1CCCC1)c1ccc([N+](=O)[O-])o1	inconclusive: 44.7 µM [inhibitor, partial curve]
CC(=O)CSc1nsc(SCC(C)=O)c1C#N	inactive
O=S(=O)(c1ccccc1)N1N=C(c2ccc(Br)cc2)CC1c1ccco1 (centres undefined)	active: 15.8 µM
c1ccc(-c2ccc(-c3nc(-c4ccccn4)no3)cc2)cc1	inactive
Cc1cc(C)nc(SCCS(=O)(=O)Cc2ccccc2)n1	inactive
Cc1ccc(N2C(=O)C3C4C=CC(CNC(=S)N5CCN(c6ccccc6)CC5)(O4)C3C2=O)cc1 (centres undefined)	inconclusive: 89.1 µM [inhibitor, partial curve]
O=[N+]([O-])c1nn(-c2ccc3c(c2)OCCO3)n(O)c1=NCc1ccccc1Cl	inconclusive: 50.1 µM [inhibitor, partial curve]
O=c1c([N+](=O)[O-])c(O)c2cccc3c2n1CCC3	inconclusive: 79.4 µM [inhibitor, single point]
Cc1cc(C)c2cc(C(=O)N3CCN(c4ncccc4C(F)(F)F)CC3)[nH]c2c1	inconclusive: 22.4 µM [inhibitor, partial curve]
c1coc(CSSCc2ccco2)c1	active: 56.2 µM
c1ccc(-c2n[nH]c(-c3ccccc3)c2-c2nc3ccccc3[nH]2)cc1	inconclusive: 39.8 µM [inhibitor, single point]
CCOC(=O)c1c(NC(=O)CSc2nc(-c3ccccc3)cc(C(F)(F)F)n2)sc(C)c1C	inactive

SMILES	Potency
COc1ccc(-c2nc(N=Nc3ccc(O)cc3)n[nH]2)cc1	inconclusive: 10 µM [inhibitor, full curve, poor fit]
COC(=O)C1=C(N)Oc2cc(C)n(CCCn3ccnc3)c(=O)c2C1c1cccc(Cl)c1 (centres undefined)	inconclusive: 100 µM [inhibitor, single point]
CC(C)(C)NC(=O)C(c1ccc(O)cc1)N(Cc1ccco1)C(=O)Cn1nnc(-c2cccs2)n1 (centres undefined)	inconclusive: 56.2 µM [inhibitor, partial curve, poor fit]
C/C=C(\C)CN1CCN(c2ccc(C)cc2)CC1	active: 7.08 µM
CN(C)c1cccc(C(=O)Nc2ccc3nc4n(c(=O)c3c2)CCCCC4)c1	inconclusive: 56.2 µM [inhibitor, partial curve]
S=C1NCCc2ccc(Cl)cc2C1c1ccccc1Cl (centres undefined)	inconclusive: 44.7 µM [inhibitor, partial curve]
CCCn1c(SCC(=O)Nc2cccc(S(=O)(=O)NC3=NCCCCC3)c2)nc2ccccc2c1=O	inconclusive: 3.98 µM [inhibitor, single point]
Cc1ccc(NC(=O)CN2C(=O)c3ccccc3C2=O)cc1	inactive
CCOc1cc(N2CCOCC2)c(OCC)cc1NC(C)C(=O)N1CCC(C)CC1 (centres undefined)	inconclusive: 50.1 µM [inhibitor, single point]
COc1ccc(OC)c(-c2nn(-c3ccccc3)cc2C(=O)N2CCc3ccccc3C2)c1	inconclusive: 56.2 µM [inhibitor, partial curve]
COc1ccccc1Nc1nc(NCc2ccco2)c2ccccc2n1	inactive
COCCNCCCOc1ccc(C(C)(C)c2ccccc2)cc1	active: 0.794 µM
CCOC(=O)N1CCC(NC(=O)c2ccc3c(c2)N(Cc2cc(C)ccc2C)C(=O)c2ccccc2S3=O)CC1 (centres undefined)	inactive
Cn1ncc(Cl)c1C(=O)N1CCN(C23CC4CC(CC(C4)C2)C3)CC1	active: 89.1 µM
O=C(NCCc1cccc(C(F)(F)F)c1)C1CCC(=O)N(C2CC2)C1 (centres undefined)	inactive
CC1CCN(c2nc3c(c(=O)n(C)c(=O)n3C)n2Cc2ccccc2)CC1	inactive
COc1ccc(C2/C(=C(/O)c3ccc(F)cc3)C(=O)C(=O)N2c2ccccn2)cc1OC (centres undefined)	active: 17.8 µM
CCOC(=O)c1c(NC(=O)/C=C\C(=O)O)sc(C)c1-c1ccccc1	inconclusive: 17.8 µM [inhibitor, full curve, poor fit]
COC(=O)CCC(=O)OC1(C)C(=O)C2=CN(c3ccc(OC)cc3)C(c3ccc(OC)cc3)=CC2=C(Br)C1=O (centres undefined)	active: 39.8 µM
O=C(Nc1cc(F)ccc1F)c1cc2nc(-c3ccco3)cc(C(F)(F)Cl)n2n1	inactive
COCCc1ncc(CN2CCC(C(=O)Nc3cccc(-c4cscn4)c3)CC2)cn1	inconclusive: 20 µM [inhibitor, full curve]
Cc1ccc(S(=O)(=O)N(CC(=O)N/N=C/c2ccco2)Cc2ccccc2)cc1	inconclusive: 79.4 µM [inhibitor, partial curve]
COc1ccc(C(=O)NC(=S)Nc2ccc(N3CCCC3)cc2)cc1OC	inconclusive: 7.94 µM [inhibitor, full curve, poor fit]
